# Assay results reported in the supplement of paper PMC4604168 (melanoma cell lines).
# This is one part of the list. Repeats are few or missing, and single values can be far off.
# Columns and labels:
# Assay in all cases: cell count relative to DMSO control; melanoma cells; higher = more viable cells
# Details in all cases: library dose: standard library concentration; 72 h
# [1] = tested on: G361
# [2] = tested on: IPC-298
# [3] = tested on: IST-MEL1
# [4] = tested on: LB2518-MEL
# [5] = tested on: LOXIMVI
# [6] = tested on: MEL-HO
# [7] = tested on: MZ2-MEL
# [8] = tested on: MeWo
# [9] = tested on: RPMI7951
# [10] = tested on: RVH-421
# 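Note: cells treated in 1,536-well plates, then fixed and DAPI-stained, with nuclei counted from automated high-throughput microscope images.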
Compound,cell count [1] [%],cell count [2] [%],cell count [3] [%],cell count [4] [%],cell count [5] [%],cell count [6] [%],cell count [7] [%],cell count [8] [%],cell count [9] [%],cell count [10] [%]
"Cc1cc(Nc2cc(N3CCN(C)CC3)nc(/C=C/c3ccccc3)n2)n[nH]1 + C=CCn1c(=O)c2cnc(Nc3ccc(N4CCN(C)CC4)cc3)nc2n1-c1cccc(C(C)(C)O)n1 [MK1775] (first compound 0.2 µM, partner dose 0.1 µM)",70.4,79.1,86.3,51.5,77.5,88,96.4,64.1,47.1,92.7
"COc1ccc(C2=N[C@@H](c3ccc(Cl)cc3)[C@@H](c3ccc(Cl)cc3)N2C(=O)N2CCNC(=O)C2)c(OC(C)C)c1 [Nutlin-3] + CCN(CC)CCCCNc1ncc2cc(-c3cc(OC)cc(OC)c3)c(NC(=O)NC(C)(C)C)nc2n1 [PD173074] (first compound 0.5 µM, partner dose 0.5 µM)",74.9,94.2,102,62.7,71.6,88.3,111,87.8,97.4,80.8
"Cc1cn(-c2cc(NC(=O)c3ccc(C)c(Nc4nccc(-c5cccnc5)n4)c3)cc(C(F)(F)F)c2)cn1 [nilotinib] + OCCn1cc(-c2cnc3nnn(Cc4ccc5ncccc5c4)c3n2)cn1 [PF04217903] (first compound 1 µM, partner dose 5 µM)",88.4,106,82.4,88.9,110,88.1,117,91.9,66.3,82.9
"CC(C)C[C@H](NC(=O)[C@H](Cc1ccccc1)NC(=O)c1cnccn1)B(O)O [Bortezomib] + O=C1NC(=O)/C(=C/c2ccc(-c3ccc(F)cc3O)o2)S1 [AS252424] (first compound 0.005 µM, partner dose 5 µM)",1.05,10.8,7.82,3.08,7.51,38.9,3.72,9.15,3.93,9.77
"Cn1c(=O)n(-c2ccc(C(C)(C)C#N)cc2)c2c3cc(-c4cnc5ccccc5c4)ccc3ncc21 + Nc1ncn([C@H]2C[C@H](O)[C@@H](CO)O2)c(=O)n1 [decitabine] (first compound 0.02 µM, partner dose 0.5 µM)",51.5,45.7,68.9,59.8,42.6,64.9,47.8,46.9,47.5,64.7
"Cn1c(=O)n(-c2ccc(C(C)(C)C#N)cc2)c2c3cc(-c4cnc5ccccc5c4)ccc3ncc21 + CC1(C)NC(=O)N(c2ccc([N+](=O)[O-])c(C(F)(F)F)c2)C1=O [nilutamide] (first compound 0.02 µM, partner dose 5 µM)",42.8,77,67.1,64.6,54,70.3,71.7,46.8,52,68
"Cn1c(=O)n(-c2ccc(C(C)(C)C#N)cc2)c2c3cc(-c4cnc5ccccc5c4)ccc3ncc21 + CO[C@H]1C[C@@H]2CC[C@@H](C)[C@@](O)(O2)C(=O)C(=O)N2CCCC[C@H]2C(=O)O[C@H]([C@H](C)C[C@@H]2CC[C@@H](OCCO)[C@H](OC)C2)CC(=O)[C@H](C)/C=C(\C)[C@@H](O)[C@@H](OC)C(=O)[C@H](C)C[C@H](C)/C=C/C=C/C=C/1C [everolimus] (first compound 0.02 µM, partner dose 0.1 µM)",23.2,40.6,49.2,40.6,69.9,50.9,26.2,36,58.8,59.1
"Cn1c(=O)n(-c2ccc(C(C)(C)C#N)cc2)c2c3cc(-c4cnc5ccccc5c4)ccc3ncc21 + CCN(CC)CCCCNc1ncc2cc(-c3cc(OC)cc(OC)c3)c(NC(=O)NC(C)(C)C)nc2n1 [PD173074] (first compound 0.02 µM, partner dose 0.5 µM)",44.6,65.5,69.7,87,73.1,69.6,62.9,55.6,71.8,70.8
"CC(C)C[C@H](NC(=O)[C@H](Cc1ccccc1)NC(=O)c1cnccn1)B(O)O [Bortezomib] + CC(C)CCN1c2nc(Nc3cc(F)c(O)c(F)c3)ncc2N(C)C(=O)C1C [BID1870] (first compound 0.005 µM, partner dose 1 µM)",1.07,17.6,11.3,6.92,23.8,29,7.05,10.9,6.86,5.24
"Cc1cc(Nc2cc(N3CCN(C)CC3)nc(/C=C/c3ccccc3)n2)n[nH]1 + O=C(O)[C@@H]1[O][Sb](=[O])([O][Sb]2(=[O])[O][C@H]([C@H](O)CO)[C@H](O)[C@H](C(=O)O)[O]2)[O][C@H]([C@H](O)CO)[C@@H]1O [stibogluconate] (first compound 0.2 µM, partner dose 10 µM)",92.4,91.5,96.9,77.9,82.3,95.3,88.7,83.3,81.5,71.8
